“And” between values parts separate entries of the source, which are not always exact repeats. Equal values may be shown once. Where a name gives a salt, the structure may show the parent alone. Out of some 5,800 compounds screened, about 620 (11%) showed activity.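 How the source made its calls: active = score above a cut-off or among the top three wells of a plate; in these data no inactive exceeds 0.85.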 The entries are a selection whose mix differs from that of the whole data set.
Tested on: primary human hepatic stellate cells (donor 1)
Assay: scaled lipid accumulation score (0 = DMSO-like, 1 = nortriptyline-like); higher = stronger HSC inactivation (lipid re-accumulation), active = hit call of the paper
Conditions: 48 h
[1] = library stock concentration: 10 mM
[2] = library stock concentration: 3.33 mM
[3] = library stock concentration: 1 mM
[4] = library stock concentration: 7.7 mM

CN(C)CCC=C1c2ccccc2COc2ccccc21 [Doxepin]
scaled lipid accumulation score [1]: inactive: 0.731

CN(C)CCC=C1c2ccccc2COc2ccccc21 [Doxepin hydrochloride]
scaled lipid accumulation score: inactive: 0.633 | scaled lipid accumulation score [1]: inactive: 0.495 and inactive: 0.707 and inactive: 0.72

CN1CCC[C@@H]1Cc1c[nH]c2ccc(CCS(=O)(=O)c3ccccc3)cc12 [Eletriptan hydrobromide]
scaled lipid accumulation score [1]: inactive: 0.624

CN1CCC[C@@H]1Cc1c[nH]c2ccc(CCS(=O)(=O)c3ccccc3)cc12 [Eletriptan HBr]
scaled lipid accumulation score [2]: inactive: 0.194 | scaled lipid accumulation score [1]: inactive: 0.202

CC(C)[N+](C)(CCOC(=O)C1c2ccccc2Oc2ccccc21)C(C)C [Propantheline bromide]
scaled lipid accumulation score: inactive: ≤ 0 | scaled lipid accumulation score (library stock concentration: 4.5 mM): inactive: ≤ 0 | scaled lipid accumulation score [1]: inactive: 0.004 and inactive: ≤ 0

CC(C)[N+](C)(CCOC(=O)C1c2ccccc2Oc2ccccc21)C(C)C [Pro-Banthine]
scaled lipid accumulation score [1]: inactive: 0.012

CC1=C(/C=C/C(C)=C/C=C/C(C)=C/C=C/C=C(C)/C=C/C=C(C)/C=C/C2=C(C)C(=O)CCC2(C)C)C(C)(C)CCC1=O [Canthaxanthin]
scaled lipid accumulation score (library stock concentration: 3.5 mM): active: 1.25

COc1ccccc1Oc1c(NS(=O)(=O)c2ccc(C(C)(C)C)cc2)nc(-c2ncccn2)nc1OCCO [Bosentan Hydrate]
scaled lipid accumulation score [2]: inactive: ≤ 0 | scaled lipid accumulation score [1]: inactive: ≤ 0

COc1ccccc1Oc1c(NS(=O)(=O)c2ccc(C(C)(C)C)cc2)nc(-c2ncccn2)nc1OCCO [Bosentan]
scaled lipid accumulation score [2]: inactive: ≤ 0 | scaled lipid accumulation score (library stock concentration: 3.6 mM): inactive: ≤ 0 | scaled lipid accumulation score [1]: inactive: ≤ -0.001

Nc1ccccc1S(N)(=O)=O [2-Aminobenzenesulfonamide]
scaled lipid accumulation score: inactive: ≤ 0

CCCCCCCCCCCCCCC(=O)N[C@H]1CCOC1=O [N-pentadecanoyl-L-Homoserine lactone]
scaled lipid accumulation score [3]: inactive: ≤ 0

CS(=O)(=O)c1ccc(-c2cnc(N)c(C(=O)Nc3ccccc3)n2)cc1
scaled lipid accumulation score [1]: active: 0.907

Cc1ccc(NC2=CC(=O)c3sc(C)nc3C2=O)cc1 [Cdk4 Inhibitor III]
scaled lipid accumulation score [2]: active: 0.942

COc1cc(N2CCC(N(C)C)CC2)ccc1Nc1ncc(Cl)c(Nc2ccccc2P(C)(C)=O)n1
scaled lipid accumulation score (library stock concentration: 80 uM): inactive: ≤ 0 | scaled lipid accumulation score (library stock concentration: 400 uM): inactive: ≤ 0 | scaled lipid accumulation score (library stock concentration: 2 mM): inactive: ≤ 0 | scaled lipid accumulation score [2]: inactive: 0.308 | scaled lipid accumulation score [1]: inactive: 0.412 and inactive: 0.385

OCc1cccnc1 [Nicotinyl alcohol tartrate]
scaled lipid accumulation score [4]: inactive: ≤ 0 | scaled lipid accumulation score [1]: inactive: 0.088

OCc1cccnc1
scaled lipid accumulation score [1]: inactive: ≤ 0

NCCCNCCCCNCCCN [Spermine tetrahydrochloride]
scaled lipid accumulation score [1]: inactive: ≤ 0

CCN(CC)CCNC(=O)c1cc(Cl)c(N)cc1OC [Metoclopramide hydrochloride]
scaled lipid accumulation score (library stock concentration: 5.9 mM): inactive: ≤ -0.001 | scaled lipid accumulation score [1]: inactive: ≤ 0 and inactive: 0.01

CCN(CC)CCNC(=O)c1cc(Cl)c(N)cc1OC [MetoclopraMide HCl]
scaled lipid accumulation score [2]: inactive: ≤ 0 | scaled lipid accumulation score [1]: inactive: ≤ 0

CCN(CC)CCNC(=O)c1cc(Cl)c(N)cc1OC [Metoclopramide monohydrochloride]
scaled lipid accumulation score: inactive: ≤ 0

CCN(CC)CCNC(=O)c1cc(Cl)c(N)cc1OC [Metoclopramide HCl]
scaled lipid accumulation score (library stock concentration: 6.7 mM): inactive: ≤ -0.006

CCOc1ccc2ccccc2c1C(=O)N[C@@H]1C(=O)N2[C@@H]1SC(C)(C)[C@@H]2C(=O)O [Nafcillin sodium]
scaled lipid accumulation score [1]: inactive: ≤ 0

CCOc1ccc2ccccc2c1C(=O)N[C@@H]1C(=O)N2[C@@H]1SC(C)(C)[C@@H]2C(=O)O
scaled lipid accumulation score [1]: inactive: ≤ 0

CCOc1ccc2ccccc2c1C(=O)N[C@@H]1C(=O)N2[C@@H]1SC(C)(C)[C@@H]2C(=O)O [Nafcillin sodium salt monohydrate]
scaled lipid accumulation score: inactive: ≤ 0

CCOc1ccc2ccccc2c1C(=O)N[C@@H]1C(=O)N2[C@@H]1SC(C)(C)[C@@H]2C(=O)O [Nafcillin Sodium]
scaled lipid accumulation score [2]: inactive: ≤ 0 | scaled lipid accumulation score [1]: inactive: ≤ -0.001

CN(C)C/C=C(/c1ccc(Br)cc1)c1cccnc1 [Zimelidine dihydrochloride monohydrate]
scaled lipid accumulation score: inactive: 0.454

CN(C)C/C=C(/c1ccc(Br)cc1)c1cccnc1 [Zimelidine dihydrochloride]
scaled lipid accumulation score (library stock concentration: 5.1 mM): inactive: 0.434 | scaled lipid accumulation score [1]: inactive: 0.178

CC(C)(CO)C(O)C(=O)NCCCO (centres undefined) [Panthenol]
scaled lipid accumulation score (library stock concentration: 9.7 mM): inactive: ≤ 0

CC(C)(CO)C(O)C(=O)NCCCO (centres undefined) [Panthenol (D)]
scaled lipid accumulation score: inactive: ≤ 0

Cn1cnc2c1c(=O)[nH]c(=O)n2C [Theobromine]
scaled lipid accumulation score: inactive: ≤ 0 | scaled lipid accumulation score [1]: inactive: ≤ 0

COc1ccc(C2=N[C@@H](c3ccc(Cl)cc3)[C@H](c3ccc(Cl)cc3)N2C(=O)N2CCNC(=O)C2)c(OC(C)C)c1 [Nutlin-3a]
scaled lipid accumulation score [1]: active: 0.954

NCCCNCCCCN(CCCN)/[N+]([O-])=N/O [Spermine NONOate]
scaled lipid accumulation score [3]: inactive: 0.027

Cl.N/C(=N\Cc1ccccc1)NC(=O)c1nc(Cl)c(N)nc1N
scaled lipid accumulation score (library stock concentration: 14 mM): active: 1.1

CCCCC[C@H](O)/C=C/[C@H]1[C@H](O)CC(=O)[C@@H]1CC(=O)CCCCC(=O)O [6-keto Prostaglandin E1]
scaled lipid accumulation score [3]: inactive: ≤ 0

CC1=NN(c2ccccc2)C(=O)C1
scaled lipid accumulation score [1]: inactive: ≤ 0

CC1=NN(c2ccccc2)C(=O)C1 [Edaravone]
scaled lipid accumulation score [2]: inactive: ≤ 0 | scaled lipid accumulation score [1]: inactive: ≤ 0

C[n+]1c2cc(N)ccc2cc2ccc(N)cc21 [Acriflavinium hydrochloride]
scaled lipid accumulation score [4]: inactive: ≤ 0 | scaled lipid accumulation score [1]: inactive: ≤ 0

CO[C@H]1/C=C\C=C(/C)C(=O)NC2=CC(=O)C(NCCN(C)C)=C(C[C@@H](C)C[C@H](OC)[C@H](O)[C@@H](C)/C=C(\C)[C@@H]1OC(N)=O)C2=O [17-DMAG (Alvespimycin) HCl]
scaled lipid accumulation score [2]: inactive: 0.404

COc1ccc(/C=C/c2ccccc2F)cc1
scaled lipid accumulation score [3]: inactive: 0.063

CCC[C@@H]1C[C@@H](C(=O)N[C@@H]([C@H]2O[C@H](SC)[C@H](O)[C@@H](O)[C@H]2O)[C@H](C)Cl)N(C)C1 [Clindamycin hydrochloride]
scaled lipid accumulation score: inactive: ≤ 0

CCC[C@@H]1C[C@@H](C(=O)N[C@@H]([C@H]2O[C@H](SC)[C@H](O)[C@@H](O)[C@H]2O)[C@H](C)Cl)N(C)C1 [Clindamycin HCl]
scaled lipid accumulation score [2]: inactive: 0.031 | scaled lipid accumulation score (library stock concentration: 4.7 mM): inactive: ≤ -0.006 | scaled lipid accumulation score [1]: inactive: ≤ 0

CCC[C@@H]1C[C@@H](C(=O)N[C@@H]([C@H]2O[C@H](SC)[C@H](O)[C@@H](O)[C@H]2O)[C@H](C)Cl)N(C)C1 [Clindamycin]
scaled lipid accumulation score [2]: inactive: ≤ 0 | scaled lipid accumulation score [1]: inactive: ≤ 0

O=C(N[C@H](CO)[C@H](O)c1ccc([N+](=O)[O-])cc1)C(Cl)Cl [Chloramphenicol]
scaled lipid accumulation score: inactive: 0.009 | scaled lipid accumulation score [2]: inactive: ≤ 0 | scaled lipid accumulation score (library stock concentration: 6.2 mM): inactive: 0.005 and inactive: ≤ -0.001 | scaled lipid accumulation score [1]: inactive: ≤ 0

O=C(O)CCNC(=O)c1ccccc1 [Betamipron]
scaled lipid accumulation score [2]: inactive: ≤ 0 | scaled lipid accumulation score [1]: inactive: ≤ -0.001 and inactive: 0.015

CCCCC[C@H](O)/C=C/[C@H]1C(=O)C[C@H](O)[C@@H]1CCCCCCC(=O)O [Prostaglandin D1]
scaled lipid accumulation score [3]: inactive: 0.018

NC/C=C/C(=O)O [(E)-4-amino-2-butenoic acid]
scaled lipid accumulation score [1]: inactive: ≤ 0

CCCCCC(=O)CC[C@@H]1[C@@H](C/C=C\CCCC(=O)O)[C@@H](O)C[C@H]1O [13,14-dihydro-15-keto Prostaglandin F2.alpha.]
scaled lipid accumulation score [3]: inactive: ≤ 0

C=C1/C(=C\C=C2/CCC[C@]3(C)[C@@H]([C@H](C)CCCC(C)C)CC[C@@H]23)C[C@@H](O)C[C@@H]1O [Alfacalcidol]
scaled lipid accumulation score [2]: inactive: ≤ 0 | scaled lipid accumulation score (library stock concentration: 5 mM): inactive: ≤ -0.006

CCN(CC)CCOC(=O)c1cc(Cl)c(N)cc1OC [SDZ-205,557 hydrochloride]
scaled lipid accumulation score [1]: inactive: 0.051

CCN(CC)CCOC(=O)c1cc(Cl)c(N)cc1OC [SDZ 205-557 hydrochloride]
scaled lipid accumulation score [1]: inactive: 0.003

CC(=O)N[C@@H](Cc1c[nH]c2ccccc12)C(=O)OCc1cc(C(F)(F)F)cc(C(F)(F)F)c1
scaled lipid accumulation score [1]: inactive: ≤ 0

OC[C@H]1NC[C@H](O)[C@@H](O)[C@@H]1O [1-Deoxynojirimycin hydrochloride]
scaled lipid accumulation score [1]: inactive: ≤ -0.07

CCN(CC)CCOC(=O)c1ccc(N)cc1Cl [Chloroprocaine HCl]
scaled lipid accumulation score [2]: inactive: ≤ 0 | scaled lipid accumulation score [1]: inactive: ≤ -0.001

CN[C@@H]1[C@@H](O[C@H]2O[C@H](CO)[C@@H](N)[C@H](O)[C@H]2O)OC2C[C@@H](N)[C@@H](O[C@H]3[C@H](O)[C@@H](O)[C@H](N)C[C@@H]3N)OC2[C@@H]1O (some centres undefined) [Apramycin]
scaled lipid accumulation score: inactive: ≤ 0 | scaled lipid accumulation score [1]: inactive: 0.006

CC12CCC(CC1=O)C2(C)C (centres undefined) [Camphor (1r)]
scaled lipid accumulation score (library stock concentration: 13.1 mM): inactive: ≤ -0.001

C[C@@H]1NC(=O)[C@@H](N)CNC(=O)[C@H](C2CCNC(=N)N2)NC(=O)/C(=C/NC(N)=O)NC(=O)[C@H](CNC(=O)CC(N)CCCN)NC1=O.N=C1NCC[C@H]([C@@H]2NC(=O)/C(=C/NC(N)=O)NC(=O)[C@H](CNC(=O)C[C@@H](N)CCCN)NC(=O)[C@H](CO)NC(=O)[C@@H](N)CNC2=O)N1 [Capreomycin sulfate]
scaled lipid accumulation score (library stock concentration: 2.6 mM): inactive: ≤ -0.001 | scaled lipid accumulation score [1]: inactive: ≤ 0

O=C(O)CCC/C=C\C[C@@H]1[C@@H](/C=C/[C@@H](O)CCc2cccc(C(F)(F)F)c2)[C@H](O)C[C@@H]1O [17-trifluoromethylphenyl trinor Prostaglandin F2.alpha.]
scaled lipid accumulation score [3]: inactive: ≤ 0

CC1(C)O[C@H]2CC(=O)OC[C@]23[C@H]2CC[C@@]4(C)[C@H](c5ccoc5)OC(=O)[C@H]5O[C@]54[C@]2(C)C(=O)C[C@@H]13 [Limonin]
scaled lipid accumulation score [2]: inactive: ≤ 0 | scaled lipid accumulation score [1]: inactive: 0.008

— the supplement of paper PMC9135407
